# From patent publication US20230059341A1
# B1: Dostarlimab, base degraded, pH 9.0, 40° C., 1 week (antibody, human IgG4 S228P, kappa)
# heavy: EVQLLESGGGLVQPGGSLRLSCAASGFTFSSYDMSWVRQAPGKGLEWVSTISGGGSYTYYQDSVKGRFTISRDNSKNTLYLQMNSLRAEDTAVYYCASPYYAMDYWGQGTTVTVSSASTKGPSVFPLAPCSRSTSESTAALGCLVKDYFPEPVTVSWNSGALTSGVHTFPAVLQSSGLYSLSSVVTVPSSSLGTKTYTCNVDHKPSNTKVDKRV[… human IgG4 Fc with S228P (EU numbers) …]
# light: DIQLTQSPSFLSAYVGDRVTITCKASQDVGTAVAWYQQKPGKAPKLLIYWASTLHTGVPSRFSGSGSGTEFTLTISSLQPEDFATYYCQHYSSYPWTFGQGTKLEIKRTVAAPSVFIFPPSDEQLKSGTASVVCLLNNFYPREAKVQWKVDNALQSGNSQESVTEQDSKDSTYSLSSTLTLSKADYEKHKVYACEVTHQGLSSPVTKSFNRGEC
# modifications: percent of population: Asn 137 deamidation 1.7; Asp 151/167 isomerization 3.1; percent of population: Asp 62 isomerization 2.3; Asn 84 deamidation 1.3; Asp 147 isomerization 20.8; Met 248 oxidation 7.1; Asp 261/266/276 isomerization 1.4; Asn 311 deamidation 7.1; Met 354 oxidation 1.2; Asn 380 deamidation 27.8; Asn 385 deamidation 27.2; Asn 357/Gln 358 deamidation 1.0; Met 424 oxidation 2.0; Asn …
# Experiments:
# [1] = target: PD-1 protein constitutively expressed on engineered CHO K1 cells, Q15116; assay: MSD potency assay: competitive binding on CHO K1 cells expressing PD-1, inhibition of PD-L1-mFc binding, ECL; percent of reference material
# [2] = target: human PD-1 on PD-1 effector cells (Jurkat T cells, Promega #J1155) (human), Q15116; assay: cell-based or functional assay
# human PD-1 on PD-1 effector cells (Jurkat T cells, Promega #J1155) (human), Q15116, sequence (Q15116 25-288): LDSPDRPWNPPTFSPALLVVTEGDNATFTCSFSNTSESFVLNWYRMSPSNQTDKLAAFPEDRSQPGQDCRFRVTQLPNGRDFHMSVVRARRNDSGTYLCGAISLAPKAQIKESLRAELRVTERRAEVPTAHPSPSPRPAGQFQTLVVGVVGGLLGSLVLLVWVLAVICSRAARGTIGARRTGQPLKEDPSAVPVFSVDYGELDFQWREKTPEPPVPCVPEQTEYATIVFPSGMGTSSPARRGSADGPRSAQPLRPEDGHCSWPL
binder,measurement,setting,value
B1,"Relative Potency, MSD Binding",[1],85%
same,Relative Potency (Potency by cell-based bioassay),[2],96%
same,"Relative Potency, Cell-Based Bioassay",[2],96%
